Laboratory results: the supplement of paper PMC10600219
Where a name gives a salt, the structure may show the parent alone. The full ranking holds about 2,800 compounds; the median of “cell viability relative to vehicle” is about 1.1, and the lowest 2% start at about 0.19. Some of the results follow.

Test system: NCI-H2228 parental
Experiment: cell viability relative to vehicle (fraction of vehicle); NCI-H2228 is an ALK-positive lung cancer line and DTP means drug-tolerant persister; higher = less growth inhibition
Conditions: 100 nM; treatment time 6 days
In short: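 NCI-H2228 parental cells and drug-tolerant persister cells were plated in 384-well plates; the persisters had been generated with 1000 nM of a targeted drug over 13 days. One day later, the 3114-agent TargetMol anti-cancer compound library was added at 100 nM, with DMSO serving as vehicle. ATP was measured 6 days after that using the CellTiter-Glo 3D Cell Viability Assay. Values are cell viability expressed relative to vehicle-treated cells.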

Structure (SMILES) | cell viability
CCOC(=O)N[C@@H]1CC[C@@H]2[C@@H](C1)C[C@H]1C(=O)O[C@H](C)[C@H]1[C@H]2/C=C/c1ccc(-c2cccc(F)c2)cn1 [Vorapaxar] | 0.872
CCOC(=O)N[C@@H]1CC[C@@H]2[C@@H](C1)C[C@H]1C(=O)O[C@H](C)[C@H]1[C@H]2/C=C/c1ccc(-c2cccc(F)c2)cn1 [Vorapaxar sulfate] | 1.12
CC[C@@]1(O)C(=O)OCc2c1cc1n(c2=O)Cc2cc3c(CN(C)C)c(O)ccc3nc2-1 [Topotecan hydrochloride] | 0.0837
Nc1nc(=O)[nH]cc1F [Fluorocytosine] | 0.987
CCN1CCN(c2ccc(Nc3cc(N(C)C(=O)Nc4c(Cl)c(OC)cc(OC)c4Cl)ncn3)cc2)CC1 [Infigratinib] | 1.01
Oc1cc(O)cc(/C=C/c2ccc(O)c(O)c2)c1 [Piceatannol] | 1.13
CN(C)Cc1ccc(-c2cnn3c(-c4cccc(NC(=O)c5cccc(C(F)(F)F)c5)c4)ccnc23)cc1 | 1.05
COc1cc2ncnc(Nc3ccc(O)c(Br)c3)c2cc1OC | 1.22
O=C(O)c1ccc(O)c2ncccc12 | 0.985
Nc1[nH]c(=O)nc2c1ncn2[C@@H]1O[C@H](CO)[C@@H](O)[C@H]1O | 1.09
COc1cc(-c2cc(-c3cccc(O)c3)cnc2N)cc(OC)c1OC | 1.25
N=C(NOCC(O)CN1CCCCC1)c1cccnc1 (configuration not stated) | 1.09
O=C(c1ccc(Cl)cc1Cl)n1nnc2ccccc21 | 1.07
CCCC(=O)Nc1cccc(NC(=O)c2ccccc2Br)c1 | 1.14
C#CC1(O)CC[C@H]2[C@@H]3CCC4=CC(=O)CC[C@@H]4[C@H]3CC[C@@]21CC (some centres not stated) [Norgestrel] | 1.21
CO[C@H]1C[C@@H]2CC[C@@H](C)[C@@](O)(O2)C(=O)C(=O)N2CCCC[C@H]2C(=O)O[C@H]([C@H](C)C[C@@H]2CC[C@H](n3cnnn3)[C@H](OC)C2)CC(=O)[C@H](C)/C=C(\C)[C@@H](O)[C@@H](OC)C(=O)[C@H](C)C[C@H](C)/C=C/C=C/C=C/1C [Zotarolimus] | 0.754
C[C@H]1O[C@H](O[C@@H]2[C@@H](O)[C@H](OCCc3ccc(O)c(O)c3)O[C@H](CO[C@H]3OCC(O)(CO)[C@@H]3O)[C@H]2OC(=O)/C=C/c2ccc(O)c(O)c2)[C@@H](O)[C@@H](O)[C@@H]1O (some centres not stated) [Forsythoside B] | 1.12
COc1cc(C(=O)OCCCCNC(=N)N)cc(OC)c1O [Leonurine hydrochloride] | 0.982
CCOCCn1c(N2CCCN(C)CC2)nc2ccccc21 [Emedastine] | 0.894
Cc1cccn2c(=O)c(-c3nnn[nH]3)cnc12 [Pemirolast potassium] | 1.23
CC[C@H](C)C(=O)O[C@H]1C[C@H](O)C=C2C=C[C@H](C)[C@H](CC[C@@H](O)C[C@@H](O)CC(=O)O)[C@H]21 [Pravastatin sodium] | 1.15
CC1=C(C(=O)O)N2C(=O)[C@@H](NC(=O)[C@H](N)c3ccccc3)[C@H]2SC1 [Cephalexin] | 1.14
CC(C)(C)NCC(O)COc1cccc2c1CC(O)C(O)C2 (configuration not stated) [Nadolol] | 1.06
Cn1nc(-c2ccc(C(F)(F)F)cc2)nc2c(=O)n(C)c(=O)nc1-2 [Walrycin B] | 0.881
C[C@H](CCC(=O)NCCS(=O)(=O)O)[C@H]1CC[C@H]2[C@@H]3[C@H](O)C[C@@H]4C[C@H](O)CC[C@]4(C)[C@H]3C[C@H](O)[C@]12C [Taurocholic acid sodium salt hydrate] | 0.981
Nc1ccccc1NC(=O)c1ccc(CNc2nccc(-c3cccnc3)n2)cc1 [Mocetinostat] | 0.456

Structure (SMILES) | cell viability
COc1cc(-c2cc(-c3ccc(N4CCNCC4)cc3)cnc2C)cc(OC)c1OC | 1.12
Cc1ccc(S(=O)(=O)/C=C/C#N)cc1 | 1.09
Cc1cc([N+](=O)[O-])c(NS(=O)(=O)c2cccc(C(=O)O)c2)cc1-c1cccnc1 [Alofanib] | 1.05
CC[C@H](C)[C@@H]1NC(=O)[C@@H]2CCCN2C(=O)[C@@H]2CCCN2C(=O)[C@@H]2CCCN2C(=O)[C@H](CC(C)C)NC(=O)CNC(=O)CNC(=O)[C@H](Cc2ccccc2)NC1=O [Heterophyllin B] | 1
COc1ccc2cc3[n+](cc2c1OC)CCc1cc2c(cc1-3)OCO2 [Berberine] | 1.06
Nc1ncnc2c1ncn2[C@@H]1O[C@H](CO)C[C@H]1O [Cordycepin] | 1.07
Cn1sc(=O)n(Cc2ccccc2)c1=O | 1.01
Cc1nccn1CC1CCc2c(c3ccccc3n2C)C1=O (configuration not stated) [Ondansetron hydrochloride] | 0.923
CC(=O)NC[C@H]1CN(c2ccc(N3CCOCC3)c(F)c2)C(=O)O1 [Linezolid] | 1.22
COc1cc(C2Oc3ccc(C4Oc5cc(O)cc(O)c5C(=O)C4O)cc3OC2CO)ccc1O (configuration not stated) [Isosilybin] | 1.14
CC(C)Cc1ccc([C@@H](C)C(=O)NS(C)(=O)=O)cc1 [Repertaxin] | 1.07
COc1ccc2c(c1)c(CC(=O)OCC(=O)O)c(C)n2C(=O)c1ccc(Cl)cc1 [Acemetacin] | 1.34
C#Cc1cccc(Nc2ncnc3cc(OCCOC)c(OCCOC)cc23)c1 [Erlotinib] | 1.07
COc1ccc(Cn2ccc3ccc(C(=O)NO)cc32)cc1 | 1.07
NS(=O)(=O)c1cc2c(cc1Cl)NC(C(Cl)Cl)NS2(=O)=O (configuration not stated) [Trichlormethiazide] | 1.07
NC(=O)c1cnc(N[C@@H]2CCCC[C@@H]2N)nc1Nc1cccc(-n2nccn2)c1 | 0.848
O=C1C[C@@H](c2ccc(O)c(O)c2)Oc2cc(O)cc(O)c21 [Eriodictyol] | 1.04
CC[C@@](C)(Nc1ccnc(-c2c[nH]c3ncccc23)n1)C(=O)NCC(F)(F)F [Decernotinib] | 1.12
Cc1c(-c2ccccc2)oc2c(C(=O)OCCN3CCCCC3)cccc2c1=O [Flavoxate hydrochloride] | 1.19
NCCCC(=O)O [4-Aminobutyric acid] | 1.17
CCCCCCOC(=O)NC(=N)c1ccc(NCc2nc3cc(C(=O)N(CCC(=O)OCC)c4ccccn4)ccc3n2C)cc1 [Dabigatran etexilate] | 1.13
CC(=O)NC(Cc1ccccc1)C(=O)O (configuration not stated) [Afalanine] | 1.04
CC(C)C[C@@H](C(=O)N[C@H](C(=O)OC1CCCC1)c1ccccc1)[C@H](O)C(=O)NO [Tosedostat] | 0.507
NS(=O)(=O)c1ccc(NC2=CC(=O)c3ccccc3C2=O)cc1 | 0.842
CCCCCCCCCCCCCCCCCCCCCCO [n-Docosanol] | 1.09
Cc1cc(C)c(CNC(=O)c2cc(-c3ccc(CN4CCOCC4)cc3)cc3c2cnn3C2CCCC2)c(=O)[nH]1 | 1.06

Structure (SMILES) | cell viability
C[C@H](N=C(NC#N)Nc1cccc2ncccc12)c1ccccc1 | 1.02
CCN(CC)CCNc1ccc(C)c2sc3ccccc3c(=O)c12 [Lucanthone] | 0.956
CN[C@@H]1[C@@H](O[C@H]2O[C@H](CO)[C@@H](N)[C@H](O)[C@H]2O)OC2C[C@@H](N)[C@@H](O[C@H]3[C@H](O)[C@@H](O)[C@H](N)C[C@@H]3N)OC2[C@@H]1O (some centres not stated) [Apramycin sulfate] | 1.06
CC12CCC(CC1=O)C2(C)C [D-Camphor] | 1.03
CC/C(=C(\c1ccc(O)cc1)c1ccc(OCCN(C)C)cc1)c1ccccc1 [4-Hydroxytamoxifen] | 1.02
CC1(C)O[C@H]2CC(=O)OC[C@]23[C@H]2CC[C@@]4(C)[C@H](c5ccoc5)OC(=O)[C@H]5O[C@]54[C@]2(C)C(=O)C[C@@H]13 [Limonin] | 0.96
CCCCCNC(=O)N1CCC(CN(Cc2ccc(Cl)cc2)Cc2ccc([N+](=O)[O-])s2)C1 (configuration not stated) | 1.06
CN1CCN(c2cc(-c3ccccc3)nc(N)n2)CC1 | 1.19
CCN(CC)CCNC(=O)c1cc(Cl)c(N)cc1OC [Metoclopramide hydrochloride] | 1.14
N#C/C(=C\c1cn(-c2ccccc2)c2ccccc12)C(=O)O | 1.06
CC1=NN(c2ccccc2)C(=O)C1 [Edaravone] | 1.11
Nc1ccccc1S(N)(=O)=O [2-Aminobenzenesulfonamide] | 1.01
COc1cc2c(Oc3ccc(NC(=O)C4(C(=O)Nc5ccc(F)cc5)CC4)cc3F)ccnc2cc1OCCCN1CCOCC1 [Foretinib] | 1.08
O=C(/C=C/c1ccc(O)cc1)CC(=O)/C=C/c1ccc(O)cc1 [Bisdemethoxycurcumin] | 1.1
C[S+]([O-])c1ccc(-c2nc(-c3ccc(F)cc3)c(-c3ccncc3)[nH]2)cc1 (configuration not stated) | 1.11
CC(=O)c1ccc2c(c1)c1cc(C(C)=O)ccc1n2CCNC(C)C [CBL0137 hydrochloride] | 0.808
CC1=CC(=O)C(C(C)C)=CC1=O [Thymoquinon] | 0.987
COCCNc1cc(NC(=O)N2CCCc3cc(CN4CCN(C)CC4=O)c(C=O)nc32)ncc1C#N [Roblitinib] | 1.13
O=C(O)Cc1c[nH]c2ccc(O)cc12 | 1.11
CN(C)CCC=C1c2ccccc2COc2ccccc21 [Doxepin hydrochloride] | 1.26
CCCCCCCCCCCCCC(=O)[O-].CCCCCCCCCCCCCC(=O)[O-].N[C@@H]1CCCC[C@H]1N.[Pt+2] [Miriplatin] | 1.11
N[C@@H](CO)C(=O)O [serine] | 1.06
CN1CCC[C@@H]1Cc1c[nH]c2ccc(CCS(=O)(=O)c3ccccc3)cc12 [Eletriptan HBr] | 0.946
CC(C)[N+](C)(CCOC(=O)C1c2ccccc2Oc2ccccc21)C(C)C [Propantheline bromide] | 1.01
C#CCN[C@@H]1CCc2ccccc21 [Rasagiline] | 0.956
